Results on 18 compounds are retold here after ChEMBL document CHEMBL5606460, “ASAP - DENV-2 NS2B-NS3 protease fluorescence single point” (2024).

The campaign covered roughly 2,000 compounds. About 110 (5.5%) showed an effect of 50% or more. The list shows a part of the results.

The target in the assay is Genome polyprotein (dengue virus type 2) (UniProt P29990).
[1] abbreviates: Thailand/16681/1984, Concentration 25.0 uM, Number of replicates 1.0.

As to `Cc1cc(CO)c2cccc(CC(=O)N3CC[C@@H](CO)C3)c2n1`, the inhibition was -5.22% (Thailand/16681/1984, Concentration 49.95 uM, Number of replicates 2.0, Standard deviation 0.5137309710723801 %) and 2.82% (Thailand/16681/1984, Concentration 99.9 uM, Number of replicates 2.0, Standard deviation 2.131775122213861 %).
With `NC1(c2cccc(NC(=O)[C@@H](NC(=O)OCc3ccccc3)c3ccc(OCc4ccccc4)cc3)c2)CCC1`, the inhibition was -1.1% (Thailand/16681/1984, Concentration 49.5 uM, Number of replicates 2.0, Standard deviation 1.548341364789727 %); -0.156% (Thailand/16681/1984, Concentration 99.01 uM, Number of replicates 2.0, Standard deviation 2.5737499035846856 %); 5.8% (Thailand/16681/1984, Concentration 198.0 uM, Number of replicates 2.0, Standard deviation 1.3706209083708834 %).
For `CCCC[C@H](N)C(=O)N[C@@H](C(=O)NCc1ccc(C(N)=O)cc1)c1ccc(OCc2ccccc2)cc1`, the inhibition (Thailand/16681/1984, Concentration 49.5 uM, Number of replicates 2.0, Standard deviation 0.45534308736890416 %) is -4.77%; the inhibition (Thailand/16681/1984, Concentration 99.01 uM, Number of replicates 2.0, Standard deviation 0.9591594337975816 %) was 6.09%; the inhibition (Thailand/16681/1984, Concentration 198.0 uM, Number of replicates 2.0, Standard deviation 4.328590586700157 %) came to 82.3%.
`CS(=O)(=O)N1CCC(NC(=O)C2CCN(c3ccc(C=O)cc3)CC2)CC1`: under setting [1], the inhibition was found to be 12%.
Take `Cc1cnccc1NC(=O)c1cc(C2CCC2)n(C)c1C`: the inhibition (Thailand/16681/1984, Concentration 49.5 uM, Number of replicates 2.0, Standard deviation 0.7067686370209446 %) stood at 0.618%; the inhibition (Thailand/16681/1984, Concentration 99.01 uM, Number of replicates 2.0, Standard deviation 0.7459418989288495 %) came out at 1.95%; the inhibition (Thailand/16681/1984, Concentration 198.0 uM, Number of replicates 2.0, Standard deviation 0.11875700646175207 %) was 4.33%.
For the compound `NC(=O)c1ccc(Cl)c(NC(=O)C2CCN(c3ccc(C=O)cc3)CC2)c1`, the inhibition under setting [1] came to 13.8%.
For `C[C@H](NC(=O)C1CCN(c2ccc(C=O)cc2)CC1)c1ccccc1C(F)(F)F`, under setting [1], the inhibition was 13.2%.
For `CCCC[C@H](N)C(=O)N[C@H](C(=O)NCc1ccc(C(N)=O)cc1)c1ccc(OCc2ccccc2)cc1`, the inhibition is, setting by setting: (Thailand/16681/1984, Concentration 49.5 uM, Number of replicates 2.0, Standard deviation 0.2650581585371317 %) -6.18%; (Thailand/16681/1984, Concentration 99.01 uM, Number of replicates 2.0, Standard deviation 5.609533791033077 %) 63.5%; (Thailand/16681/1984, Concentration 198.0 uM, Number of replicates 2.0, Standard deviation 0.01804559465842439 %) 99.8%.
With `COC(=O)c1csc(Cn2ncc(C3CCNCC3)c2C)n1`, the inhibition was -5.62% (Thailand/16681/1984, Concentration 49.5 uM, Number of replicates 2.0, Standard deviation 0.7717951129802201 %); -4.23% (Thailand/16681/1984, Concentration 99.01 uM, Number of replicates 2.0, Standard deviation 0.8815947340216488 %); -2.98% (Thailand/16681/1984, Concentration 198.0 uM, Number of replicates 2.0, Standard deviation 1.4332580373412276 %).
In the case of `CCCCCC(=O)N[C@H](C(=O)N1CCC(CN)CC1)c1ccc(OCc2ccccc2)cc1`, the inhibition (Thailand/16681/1984, Concentration 49.5 uM, Number of replicates 2.0, Standard deviation 0.28807609613725765 %) was -0.096%; the inhibition (Thailand/16681/1984, Concentration 99.01 uM, Number of replicates 2.0, Standard deviation 0.6037821383349988 %) turned out to be 0.933%; the inhibition (Thailand/16681/1984, Concentration 198.0 uM, Number of replicates 2.0, Standard deviation 0.26542854504184543 %) amounted to 3.19%.
On to `CC(C)Nc1nc2cc(NC(=O)Cc3cocn3)ccc2[nH]1`, for which the inhibition reads like this: (Thailand/16681/1984, Concentration 49.5 uM, Number of replicates 2.0, Standard deviation 2.957660172947234 %) -2.35%; (Thailand/16681/1984, Concentration 99.01 uM, Number of replicates 2.0, Standard deviation 2.6234643030394076 %) -2.94%; (Thailand/16681/1984, Concentration 198.0 uM, Number of replicates 2.0, Standard deviation 1.9636006829919945 %) -2.38%.
As to `O=C(/C=C/c1ccc(N2CCNCC2)cc1)C(=O)N1CCOCC1`, the inhibition runs as follows: (Thailand/16681/1984, Concentration 49.5 uM, Number of replicates 2.0, Standard deviation 1.4144964098734516 %) 1.52%; (Thailand/16681/1984, Concentration 99.01 uM, Number of replicates 2.0, Standard deviation 0.4568300281843685 %) 5.18%; (Thailand/16681/1984, Concentration 198.0 uM, Number of replicates 2.0, Standard deviation 1.1436463049734074 %) 13.3%.
`O=Cc1ccc(N2CCC(C(=O)NCCc3ccc(-c4ccccc4)cc3)CC2)cc1`: under setting [1], the inhibition was found to be 0.487%.
For `COc1ccc(CNC(=O)C2CCN(c3ccc(C=O)cc3)CC2)c(OC)c1`, the inhibition under setting [1] amounted to 10.2%.
`Cc1cnccc1NC(=O)c1cc(N2CCCC2)ncn1`: the inhibition runs as follows: (Thailand/16681/1984, Concentration 49.5 uM, Number of replicates 2.0, Standard deviation 2.024173375028578 %) -5.29%; (Thailand/16681/1984, Concentration 99.01 uM, Number of replicates 2.0, Standard deviation 1.1380880628854877 %) -2.63%; (Thailand/16681/1984, Concentration 198.0 uM, Number of replicates 2.0, Standard deviation 2.133693646758077 %) -2%.
As for `O=C(Nc1cnn2c1CNCC2)c1cccc2ncccc12`, the inhibition is, setting by setting: (Thailand/16681/1984, Concentration 49.5 uM, Number of replicates 2.0, Standard deviation 0.6601434145354308 %) -0.425%; (Thailand/16681/1984, Concentration 99.01 uM, Number of replicates 2.0, Standard deviation 0.6930578457318657 %) 0.074%; (Thailand/16681/1984, Concentration 198.0 uM, Number of replicates 2.0, Standard deviation 0.9980960153032259 %) 0.703%.
In the case of `COc1cc(Cc2cnc(N)c(C(F)F)c2)nc(N2CCNCC2)n1`, the inhibition was 1.19% (Thailand/16681/1984, Concentration 49.5 uM, Number of replicates 2.0, Standard deviation 0.44655669171298956 %); 3.1% (Thailand/16681/1984, Concentration 99.01 uM, Number of replicates 2.0, Standard deviation 0.9500169394185984 %); 6.14% (Thailand/16681/1984, Concentration 198.0 uM, Number of replicates 2.0, Standard deviation 0.4205436146652173 %).
On to `Cc1cnccc1NC(=O)c1cccn(C[C@@H](C)CN)c1=O`, for which the inhibition reads like this: (Thailand/16681/1984, Concentration 49.5 uM, Number of replicates 2.0, Standard deviation 0.06828430090862199 %) 5.8%; (Thailand/16681/1984, Concentration 99.01 uM, Number of replicates 2.0, Standard deviation 0.6779640899025988 %) 10.2%; (Thailand/16681/1984, Concentration 198.0 uM, Number of replicates 2.0, Standard deviation 0.14036181818322443 %) 17.5%.
